Reference: the antibiotic and cytotoxicity screens of Wong et al. (2023)
Some of the results follow.

How the values were obtained:
[1] = tested on: HSkMC (human skeletal muscle cells); experiment: cytotoxicity call (relative viability < 0.9); conditions: 10 µM
[2] = tested on: HepG2; experiment: cytotoxicity call (relative viability < 0.9); conditions: 10 µM
[3] = tested on: S. aureus RN4220; experiment: growth inhibition call (relative growth <= 0.2); conditions: 50 µM

Row | SMILES | cytotoxicity call [1] | cytotoxicity call [2] | growth inhibition call [3]
1 | C[C@H](CO)N1C[C@H](C)[C@@H](CN(C)Cc2ccc(Cl)c(Cl)c2)Oc2ccc(NC(=O)CCCCCC(=O)Nc3ccccc3N)cc2CC1=O | inactive | inactive | inactive
2 | COc1cccc(S(=O)(=O)N(C)C[C@H]2Oc3cc(C4=CCCC4)ccc3S(=O)(=O)N([C@H](C)CO)C[C@@H]2C)c1 | inactive | inactive | inactive
3 | Cc1noc(C)c1NC(=O)N(C)C[C@H]1OCCCC[C@@H](C)Oc2ccc(NC(=O)Nc3ccc(F)cc3)cc2C(=O)N([C@@H](C)CO)C[C@H]1C | inactive | inactive | inactive
4 | Nc1ccn([C@@H]2O[C@H](CO)[C@@H](O)[C@H]2O)c(=O)n1 | inactive | inactive | inactive
5 | CNC1C(O)C(OC2C(N)CC(N)C(OC3OC(CN)=CCC3N)C2O)OCC1(C)O.O=S(=O)(O)O (stereo not drawn) | inactive | inactive | active
6 | Cc1ccc(S(=O)(=O)Nc2ccc3c(c2)CC(=O)N([C@H](C)CO)C[C@@H](C)[C@@H](CN(C)S(=O)(=O)c2c(C)noc2C)O3)cc1 | inactive | inactive | inactive
7 | C[C@@H]1CCCCO[C@H](CN(C)C(=O)c2ccccc2)[C@@H](C)CN([C@@H](C)CO)C(=O)c2cc(NC(=O)c3ccccc3)ccc2O1 | inactive | inactive | inactive
8 | CNC(=O)C[C@@H]1CC[C@H]2[C@@H](COC[C@H](O)CN2C(=O)Nc2ccc3c(c2)OCO3)O1 | inactive | inactive | inactive
9 | C[C@H](CO)N1C[C@H](C)[C@@H](CN(C)CC2CC2)Oc2ccc(NS(=O)(=O)c3cn(C)cn3)cc2C1=O | inactive | inactive | inactive
10 | COc1ccc(NC(=O)N(C)C[C@H]2OCc3cnnn3CCCC(=O)N([C@@H](C)CO)C[C@@H]2C)c(OC)c1 | inactive | inactive | inactive
11 | C[C@@H]1CCCCO[C@H](CN(C)Cc2ccc(C(F)(F)F)cc2)[C@H](C)CN([C@@H](C)CO)C(=O)c2cc(NC(=O)c3ccncc3)ccc2O1 | inactive | inactive | inactive
12 | CC(C)(CO)[C@@H](O)C(=O)NCCCO | inactive | inactive | inactive
13 | O=C(C[C@H]1CC[C@@H]2[C@H](COC[C@@H](O)CN2C(=O)c2ccccn2)O1)NC1CCC1 | inactive | inactive | inactive
14 | Cc1noc(C)c1NC(=O)Nc1ccc2c(c1)C(=O)N([C@H](C)CO)C[C@H](C)[C@H](CN(C)C(=O)Nc1cccc3ccccc13)OCCCC[C@H](C)O2 | active | inactive | inactive
15 | Cc1ccc(S(=O)(=O)N(C)C[C@H]2OCCCC[C@@H](C)Oc3ccc(NC(=O)C4CCCCC4)cc3C(=O)N([C@H](C)CO)C[C@@H]2C)cc1 | inactive | active | inactive
16 | COc1ccc(NC(=O)Nc2ccc3c(c2)C(=O)N([C@H](C)CO)C[C@@H](C)[C@H](CN(C)S(=O)(=O)c2ccc(F)cc2)OCCCC[C@H](C)O3)cc1 | inactive | active | inactive
17 | Cc1ccc(S(=O)(=O)N(C)C[C@@H]2OCCCC[C@H](C)Oc3ccc(NS(=O)(=O)c4ccc(F)cc4)cc3C(=O)N([C@@H](C)CO)C[C@@H]2C)cc1 | inactive | active | inactive
18 | COc1cccc(-c2cnc3c(c2)C(=O)N([C@H](C)CO)C[C@H](C)[C@H](CN(C)S(=O)(=O)c2ccc(F)cc2)O3)c1 | inactive | inactive | inactive
19 | C[C@@H]1CN([C@@H](C)CO)C(=O)c2cc(Br)cnc2O[C@H]1CN(C)Cc1ccc2c(c1)OCO2 | inactive | inactive | inactive
20 | C[C@@H]1CN([C@@H](C)CO)C(=O)c2cc(C#CC3CCCC3)cnc2O[C@@H]1CN(C)C(=O)Cc1ccccn1 | inactive | inactive | inactive
21 | CCCCN(CCCC)CCCOC(=O)c1ccc(N)cc1.O=S(=O)(O)O | inactive | inactive | inactive

Row | SMILES | cytotoxicity call [1] | cytotoxicity call [2] | growth inhibition call [3]
22 | COc1ccc(NC(=O)N(C)C[C@H]2OCCCC[C@H](C)Oc3ccc(NS(=O)(=O)c4ccc(OC)cc4)cc3C(=O)N([C@@H](C)CO)C[C@@H]2C)cc1 | inactive | inactive | inactive
23 | C=CC(=O)c1ccc2ccccc2c1 | inactive | inactive | inactive
24 | C[C@H](CO)N1C[C@H](C)[C@H](CN(C)S(=O)(=O)c2ccccc2)Oc2ncc(C#Cc3cccc(F)c3)cc2C1=O | inactive | inactive | inactive
25 | COc1ccc(NC(=O)Nc2ccc3c(c2)C(=O)N([C@@H](C)CO)C[C@H](C)[C@H](CN(C)S(=O)(=O)c2ccc(F)cc2)OCCCC[C@@H](C)O3)cc1 | inactive | inactive | inactive
26 | CCOC(=O)C1=C(CN2CCOCC2)NC(c2nccs2)=N[C@@H]1c1ccc(F)cc1Br | inactive | inactive | inactive
27 | COc1ccc(C#Cc2ccc3c(c2)[C@]2(C(=O)N3)[C@H](C(=O)O)[C@H]3C(=O)O[C@H](c4ccccc4)[C@H](c4ccccc4)N3[C@@H]2c2ccccc2OCCO)cc1 | inactive | inactive | inactive
28 | Cc1ccc(S(=O)(=O)Nc2ccc3c(c2)C(=O)N(C)[C@H]2CC[C@@H](CC(=O)NCCc4ccncc4)O[C@H]2CO3)cc1 | inactive | inactive | inactive
29 | Cc1noc(C)c1NC(=O)Nc1ccc2c(c1)C(=O)N([C@@H](C)CO)C[C@H](C)[C@@H](CN(C)S(=O)(=O)c1ccc(Cl)cc1)OCCCC[C@@H](C)O2 | inactive | inactive | inactive
30 | CN1C(=O)c2cc(NC(=O)C3CCC3)ccc2OC[C@H]2O[C@H](CC(=O)NCCc3ccncc3)CC[C@@H]21 | inactive | inactive | inactive
31 | C[C@@H]1CN([C@@H](C)CO)C(=O)c2cc(NS(=O)(=O)c3ccccc3)ccc2O[C@@H](C)CCCCO[C@@H]1CN(C)C(=O)c1ccccc1 | inactive | inactive | inactive
32 | CC(=O)/N=c1\sc(S(N)(=O)=O)nn1C | inactive | inactive | inactive
33 | C[C@@H]1CN([C@@H](C)CO)C(=O)c2cc(NC(=O)c3ccccc3)ccc2O[C@@H](C)CCCCO[C@H]1CN(C)Cc1ccccc1 | inactive | inactive | inactive
34 | C[C@H]1CN([C@@H](C)CO)C(=O)c2cc(NS(=O)(=O)c3ccc(F)cc3)ccc2O[C@H]1CN(C)Cc1ccc(Oc2ccccc2)cc1 | inactive | inactive | inactive
35 | O=C(C[C@@H]1CC[C@H]2[C@@H](COC[C@H](O)CN2C(=O)c2ccccn2)O1)NC1CCC1 | inactive | inactive | inactive
36 | N=C(N)c1ccc(C(N)=O)cc1 | inactive | inactive | inactive
37 | C[C@H](CO)N1C[C@H](C)[C@H](CN(C)Cc2ccc(-c3ccccc3)cc2)Oc2ccc(NC(=O)Cn3cnnn3)cc2CC1=O | inactive | inactive | inactive
38 | C[C@@H]1CCCCO[C@H](CN(C)C(=O)CCC(F)(F)F)[C@@H](C)CN([C@H](C)CO)C(=O)c2cc(NC(=O)CCC(F)(F)F)ccc2O1 | inactive | inactive | inactive
39 | C[C@@H]1CN([C@H](C)CO)C(=O)c2cc(NS(=O)(=O)c3ccccc3)ccc2O[C@H]1CN(C)S(C)(=O)=O | inactive | active | inactive
40 | C[C@@H]1CN([C@H](C)CO)C(=O)c2cccc(NC(=O)c3ccncc3)c2O[C@H]1CN(C)S(=O)(=O)c1cccs1 | inactive | inactive | inactive
41 | COCCNC(=O)C[C@@H]1CC[C@H]2[C@@H](COC[C@H](O)CN2S(=O)(=O)c2ccccc2C)O1 | inactive | inactive | inactive
